In PMC11329700:
Changes are numbered by the printed parent chain. No constants are given. Whether binding was seen depends on the method and setting. Binding seen in cells or lysates may run through a third protein. Some results given as binding are weak or reduced against the parent protein; the word gives no strength. For part of these data: Tags and fused reporters may be left off the sequences shown.

Protein sequences, listed by entry. Tags and fused reporters are not part of them.
UniProt O35179: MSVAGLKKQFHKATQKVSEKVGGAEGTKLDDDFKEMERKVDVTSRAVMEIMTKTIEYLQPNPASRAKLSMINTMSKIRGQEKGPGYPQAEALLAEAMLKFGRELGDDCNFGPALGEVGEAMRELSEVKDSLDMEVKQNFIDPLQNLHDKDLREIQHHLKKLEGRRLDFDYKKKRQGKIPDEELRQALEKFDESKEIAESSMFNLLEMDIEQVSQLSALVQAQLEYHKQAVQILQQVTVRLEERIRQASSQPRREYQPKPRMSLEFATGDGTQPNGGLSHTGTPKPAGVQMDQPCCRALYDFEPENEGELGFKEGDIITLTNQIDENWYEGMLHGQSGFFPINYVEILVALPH
UniProt Q9Z0W5: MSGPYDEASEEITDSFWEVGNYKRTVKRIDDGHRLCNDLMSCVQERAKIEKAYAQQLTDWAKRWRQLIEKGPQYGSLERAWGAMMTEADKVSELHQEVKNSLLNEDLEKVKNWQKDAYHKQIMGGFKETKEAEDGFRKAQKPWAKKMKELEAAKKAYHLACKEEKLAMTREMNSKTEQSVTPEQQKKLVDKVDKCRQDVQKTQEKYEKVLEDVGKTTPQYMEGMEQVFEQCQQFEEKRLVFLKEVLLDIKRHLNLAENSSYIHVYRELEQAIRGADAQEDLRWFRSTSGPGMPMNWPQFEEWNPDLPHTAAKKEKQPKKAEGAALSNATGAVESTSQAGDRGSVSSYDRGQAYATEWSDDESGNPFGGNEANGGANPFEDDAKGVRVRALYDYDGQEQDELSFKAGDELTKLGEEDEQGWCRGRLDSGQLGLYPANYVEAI

Columns and labels:
Experiment in all cases: pull-down; GST fusion proteins on GSH-sepharose beads incubated with pre-cleared rat brain synaptosomal lysate (20 mM Tris pH 7.4, 150 mM NaCl, 1% Triton X-100, 1 mM EDTA, 1 mM EGTA) at 4 °C for 1 h; bound proteins by Coomassie stain or Western blot (some blots quantified by densitometry); only the target purified
[1] = target: T1, GST-dyn1xA-PRR S774/778E (rat) (UniProt P21575)
T1 sequence: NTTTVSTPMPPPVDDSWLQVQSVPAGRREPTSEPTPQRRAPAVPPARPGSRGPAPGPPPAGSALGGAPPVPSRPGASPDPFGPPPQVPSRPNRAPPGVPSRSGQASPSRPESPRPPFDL

[2] = target: T2, GST-dyn1xA-PRR 806-864 P813/816A (rat) (UniProt P21575)
T2 sequence: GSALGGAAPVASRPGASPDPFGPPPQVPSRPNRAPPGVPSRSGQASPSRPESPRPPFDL

[3] = target: T3, GST-dyn1xA-PRR 806-864 G842A (rat) (UniProt P21575)
T3 sequence: T2 sequence with A8P, A11P, G37A

[4] = target: T4, GST-dyn1xA-PRR 806-864 P833/836A (rat) (UniProt P21575)
T4 sequence: T2 sequence with A8P, A11P, P28A, P31A

[5] = target: T5, GST-Dyn1xA-PRR 794-864 (rat) (UniProt P21575)
T5 sequence: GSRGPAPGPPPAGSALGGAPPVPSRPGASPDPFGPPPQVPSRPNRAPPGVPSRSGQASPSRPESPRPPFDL

[6] = target: T6, GST-dyn1xA-PRR 806-864 P816/819A (rat) (UniProt P21575)
T6 sequence: T2 sequence with A8P, P14A

[7] = target: T7, GST-dyn1xA-PRR P841/844A (rat) (UniProt P21575)
T7 sequence: T1 sequence with E29S, E33S, P96A, P99A

[8] = target: GST-Dyn1xA-PRR (dynamin 1xA proline-rich region, amino acids 746-864) (rat) (UniProt P21575)
[9] = target: T8, GST-dyn1xA-PRR 806-864 P841/844A (rat) (UniProt P21575)
T8 sequence: T2 sequence with A8P, A11P, P36A, P39A

[10] = target: T9, GST-dyn1xA-PRR P844A (rat) (UniProt P21575)
T9 sequence: T1 sequence with E29S, E33S, P99A

[11] = target: T10, GST-dyn1xA-PRR 806-864 A839G (rat) (UniProt P21575)
T10 sequence: T2 sequence with A8P, A11P, A34G

[12] = target: T11, GST-Dyn1xA-PRR 806-864 (rat) (UniProt P21575)
T11 sequence: T2 sequence with A8P, A11P

[13] = target: T12, GST-dyn1xA-PRR 806-864 R838A (rat) (UniProt P21575)
T12 sequence: T2 sequence with A8P, A11P, R33A

[14] = target: T13, GST-dyn1xA-PRR P816/819A (rat) (UniProt P21575)
T13 sequence: T1 sequence with E29S, E33S, P71A, P74A

[15] = target: T14, GST-dyn1xA-PRR P813/816A (rat) (UniProt P21575)
T14 sequence: T1 sequence with E29S, E33S, P68A, P71A

[16] = target: T15, GST-dyn1xA-PRR S851/857E (rat) (UniProt P21575)
T15 sequence: T1 sequence with E29S, E33S, S106E, S112E

[17] = target: T16, GST-dyn1xA-PRR R846A (rat) (UniProt P21575)
T16 sequence: T1 sequence with E29S, E33S, R101A

Substance: Endophilin A1 (from UniProt O35179 1-352)
- binding [1]: binds
- binding [2]: binds
- binding [3]: binds
- binding [4]: no binding
- binding [5]: binds
- binding [6]: binds
- binding [7]: binds
- binding [8]: binds
- binding [9]: binds
- binding [10]: binds
- binding [11]: binds weakly
- binding [12]: binds
- binding [13]: binds weakly
- binding [14]: binds
- binding [15]: binds
- binding [16]: binds

Substance: Syndapin 1 (from UniProt Q9Z0W5 1-441)
- binding [8]: binds
- binding [17]: binds
